Reference: article PMC4336329 (PLoS ONE, 2015)
The whole screen tested about 310,000 compounds, of which about 2,200 (0.71%) showed an effect of 50% or more. The effect is printed as a negative number. The list shows a part of the results.

Molecular target: human ether-à-go-go-related gene (hERG) potassium channel (human, UniProt Q12809)
Assay: primary screen, population patch clamp on CHO cells stably expressing hERG

Chain of human ether-à-go-go-related gene (hERG) potassium channel (Q12809 whole entry, looked up): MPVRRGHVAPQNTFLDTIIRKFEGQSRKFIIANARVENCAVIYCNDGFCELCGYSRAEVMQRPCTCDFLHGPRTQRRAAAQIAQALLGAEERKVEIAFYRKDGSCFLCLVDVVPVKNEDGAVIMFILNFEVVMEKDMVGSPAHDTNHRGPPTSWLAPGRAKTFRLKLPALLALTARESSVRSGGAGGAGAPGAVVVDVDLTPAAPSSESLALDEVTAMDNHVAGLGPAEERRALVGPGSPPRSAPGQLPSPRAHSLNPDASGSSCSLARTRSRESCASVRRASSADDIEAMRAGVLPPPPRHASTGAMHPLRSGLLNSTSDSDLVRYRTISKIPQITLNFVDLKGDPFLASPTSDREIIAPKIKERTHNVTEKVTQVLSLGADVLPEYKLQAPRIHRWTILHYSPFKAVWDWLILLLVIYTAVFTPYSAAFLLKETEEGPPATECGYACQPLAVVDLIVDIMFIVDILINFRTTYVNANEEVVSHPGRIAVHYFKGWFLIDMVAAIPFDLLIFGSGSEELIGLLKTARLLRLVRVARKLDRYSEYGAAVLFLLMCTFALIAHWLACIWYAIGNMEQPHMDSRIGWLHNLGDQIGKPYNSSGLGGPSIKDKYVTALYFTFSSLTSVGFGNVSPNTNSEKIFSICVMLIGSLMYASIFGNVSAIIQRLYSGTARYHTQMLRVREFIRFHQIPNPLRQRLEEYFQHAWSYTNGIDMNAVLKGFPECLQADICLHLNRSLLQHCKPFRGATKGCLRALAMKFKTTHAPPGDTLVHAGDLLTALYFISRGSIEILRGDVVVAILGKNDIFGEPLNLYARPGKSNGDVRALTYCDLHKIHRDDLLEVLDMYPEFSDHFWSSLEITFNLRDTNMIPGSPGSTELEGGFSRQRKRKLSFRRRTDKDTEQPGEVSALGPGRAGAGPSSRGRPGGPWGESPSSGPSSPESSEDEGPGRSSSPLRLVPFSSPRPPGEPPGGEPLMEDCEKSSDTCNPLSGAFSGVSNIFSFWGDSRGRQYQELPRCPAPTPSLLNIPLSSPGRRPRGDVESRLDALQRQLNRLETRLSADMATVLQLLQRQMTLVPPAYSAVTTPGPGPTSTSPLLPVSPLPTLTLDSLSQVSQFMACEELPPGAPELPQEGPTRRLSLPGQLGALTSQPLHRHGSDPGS

Point of comparison: CCC(C)C(=O)Nc1nnc(SCC(=O)NC(C)(C)C)s1 (centres unmarked), “hERG current change (%, negative = inhibition) at 1uM” value 22.6%. Against it:
- CN1CCN(C(=O)c2cnn3c2NC(c2ccccc2)CC3C(F)(F)F)CC1 (centres unmarked) — lower, 13%
- COc1cccc(-n2nnnc2SCC(=O)Nc2ccc(OC)cc2OC)c1 — lower, -3.45%
- COc1ccc2c(CC(=O)OCC(=O)Nc3ccc(C)cc3)coc2c1 — lower, 0.61%
- COCCCNC(=O)c1ccccc1Oc1ccccc1 — lower, 3.11%
- COC(=O)c1ccc(NC(=O)CCS(=O)(=O)c2ccc(Br)cc2)cc1 — lower, 14.2%
- O=C(NCc1ccc(F)cc1)C(=O)NCC1OCCN1C(=O)c1cccs1 (centres unmarked) — lower, 3.51%
- Cc1ccc(C(=O)/C=C/C(=O)c2ccc(C)cc2)cc1 — lower, 7.16%
- CCOc1ccc(CCNC(=O)c2ccc(C)c(N3CCCC3=O)c2)cc1OCC — lower, 12.4%
- CCCN(CC(=O)Nc1ccccc1C)C(=O)c1ccc(S(=O)(=O)N2CCCCC2)cc1 — lower, 8.84%
- COc1cc(C(=O)NCC(=O)NCCN2C(=O)S/C(=C\c3ccccc3Cl)C2=O)cc(OC)c1OC — lower, 7.22%
- COC(=O)c1ccccc1NC(NC(=O)c1ccco1)C(=O)c1ccccc1 (centres unmarked) — lower, -3.73%
- Cc1csc(NC(=O)CCN2C(=O)c3ccccc3S2(=O)=O)n1 — lower, 1.86%
- COc1ccc(-n2nnnc2-c2cccnc2)cc1 — lower, 15.5%
- CN(C)S(=O)(=O)c1ccc(Cl)c(NC(=O)COC(=O)C2CSC3(C)CCC(=O)N23)c1 (centres unmarked) — lower, 7.9%
- COc1nc(Oc2ccc(=O)[nH]n2)nc(N2CCOCC2)n1 — lower, 2.16%
- Cc1nc(-c2ccccc2)nc(Cl)c1Cl — lower, -10.3%
- CC(C)(C)OC(=O)N[C@H](C(=O)OC(C)(C)C)c1ccc(Br)cc1 — lower, 8.95%
- COc1ccc(CCNc2nc(Cl)nc(NC(C)(C)CO)n2)cc1OC — lower, 17.5%
- COc1ccc(C2C(C#N)=C(N)OC3=C2C(=O)CC(C)(C)C3)c([N+](=O)[O-])c1OC (centres unmarked) — lower, 2.91%
- Cc1cc(C)nc(NN2C(=O)/C(=C/c3ccccc3)SC2=S)n1 — lower, 7.8%
- CN1CCN(c2ccc(NC(=O)C(C)(c3ccccc3)c3ccccc3)cc2)CC1 — lower, -15.9%
- COc1cccc(CC(=O)Nc2nc(-c3ccc(OC)c(OC)c3)cs2)c1 — lower, 12.6%
- CC(=O)c1ccc(NC(=O)c2ccc(CNc3c(N4CCCC4)c(=O)c3=O)cc2)cc1 — lower, 11.9%
- Cc1cccc(NC(=S)Nc2c(C)n(C)n(-c3ccccc3)c2=O)c1C — lower, -2.46%
- CC(Sc1nc(N)cc(=O)[nH]1)C(=O)Nc1sc2c(c1C#N)CCCC2 (centres unmarked) — lower, 17.7%
- CCC1CCCCN1CCCn1c(=S)[nH]c2ccccc2c1=O (centres unmarked) — lower, -35.5%
- CCNc1nc(NC(C)(C)C)nc(SC(C(C)=O)C(C)=O)n1 — lower, 9.66%
- CS(=O)(=O)c1ccc2nc(NC(=O)c3ccc(=O)[nH]c3)sc2c1 — lower, 9.55%
- O=C(Nc1ccc(NC(=O)c2ccco2)nc1)c1cccc(F)c1 — lower, 16.7%
- Nc1nc(CSc2ccccc2)nc(N2CCCCC2)n1 — lower, 5.51%
- O=C(NC1CCCc2ccccc21)c1cccc(S(=O)(=O)N2CCN(c3ccccc3)CC2)c1 (centres unmarked) — lower, -1.36%
- CSc1ccc(C(=O)C2CCCN(C(=O)c3ccc4c(c3)OCO4)C2)cc1 (centres unmarked) — lower, -1.19%
- CC(C)Cn1c(N)c(C(=O)CSc2ncccn2)c(=O)n(C)c1=O — lower, 12.8%
- COc1ccc(NC(=O)C(c2cc3c(cc2[N+](=O)[O-])OCO3)N(C)c2ccccc2)cc1 (centres unmarked) — lower, 5.11%
- Nc1c(Br)c(=O)[nH]c(=O)n1-c1ccc(F)cc1 — lower, 18.5%
- COC(=O)C(NC(C)=O)(Nc1nc2ccc(C)cc2s1)C(F)(F)F (centres unmarked) — lower, 7.94%
- CCOC(=O)c1ccc(NC(C)=O)c([N+](=O)[O-])c1 — lower, 11.3%
- O=C(NCc1ccccc1)c1n[nH]nc1-c1ccccc1O — lower, 1.63%
- O=C(NCc1ccccc1)C(c1cccnc1)N(C(=O)c1csnn1)c1ccccc1 (centres unmarked) — lower, 10.7%
- COC(=O)c1ccccc1NC(=O)N1CCN(C/C=C/c2ccccc2)CC1 — lower, -0.0462%
- O=C(COC(=O)c1cc([N+](=O)[O-])ccc1N1CCOCC1)NCc1ccc(F)cc1 — lower, -19.6%
- Nc1nc2ccc(C(=O)NCCOC(=O)C3CCCCC3)cc2s1 — lower, 8.34%
- COc1ccccc1N1CCN(C(=O)c2cc(C(=O)N3CCN(c4ccccc4OC)CC3)cc([N+](=O)[O-])c2)CC1 — lower, 15%
- O=C(COc1ccc(-c2nnco2)cc1)Nc1c(F)cccc1F — lower, 14.1%
- CN(CC(=O)Nc1ccc(F)cc1)C(=O)COc1ncnc2ccccc12 — lower, -4.57%
- OCCn1c(Cl)nc2ccccc21 — lower, 12.8%
- Cc1c(C#N)c2ccccc2n1CCOc1ccccc1F — lower, 6.79%
- COC(=O)C[C@H]1c2cc(C(F)(F)F)ccc2S(=O)(=O)N1C1CCCC1 — lower, -12%
- COc1ccc(CCNC(=O)C2CCCN2S(=O)(=O)c2ccc(F)cc2)cc1OC (centres unmarked) — lower, 7.36%
- CCOC(=O)CNC(=O)c1ccc(Cl)s1 — lower, 3.34%
- CSc1ccc(CCNC(=O)Cn2ncc3c([nH]c4ccccc43)c2=O)cc1 — lower, 17.1%
- c1cc2c(cc1CCNC1C3CC4CC(C3)CC1C4)OCO2 (centres unmarked) — lower, 5.84%
- O=C(O)CCc1nc(-c2ccccc2)c(-c2ccccc2)o1 — lower, -1.95%
- Cc1cccc(N(CC(=O)NCCSc2ccccn2)S(=O)(=O)c2ccccc2)c1 — lower, 2.41%
- Cc1cccc(N2CCN(S(C)(=O)=O)CC2)c1C — lower, 17.1%
